# Inconclusive results, whose numbers are uncertain, are shown with a selection of clear calls. No potency is given beside an inconclusive call; the fits are too rough. Calls of active or inactive are those of the source. Calls come from the whole dose curve; as a rule, active = well fitted activation curve with a large enough effect; inconclusive = small, poorly fitted or top-dose-only effect; inactive = flat fitted curve, though single readings scatter.
# Biological target: Thyrotropin-releasing hormone receptor (Homo sapiens) (UniProt P34981)
# Assay: qHTS for Small Molecule Agonists and Allosteric Enhancers of Human TRH Receptor: Confirmation Screen for Agonists; note: nearly all actives have a fitted effect of over 75% in size
# Settings: TRHR-expressing cells, agonist activation read-out; series mostly up to 46.1 µM
# Procedure, shortened: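 TRHR-expressing cells loaded with fluo-8 calcium dye; compound added after 10 s baseline, then calcium fluorescence (EX 480/EM 530) read kinetically 1/sec on FDSS. Agonist mode is the read before addition of 10 nM TRH (EC20).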
# Potency is the fitted concentration of half-maximal effect; tags give direction and shape of the fitted curve.
# Chain of UniProt P34981 (P34981 whole entry, looked up): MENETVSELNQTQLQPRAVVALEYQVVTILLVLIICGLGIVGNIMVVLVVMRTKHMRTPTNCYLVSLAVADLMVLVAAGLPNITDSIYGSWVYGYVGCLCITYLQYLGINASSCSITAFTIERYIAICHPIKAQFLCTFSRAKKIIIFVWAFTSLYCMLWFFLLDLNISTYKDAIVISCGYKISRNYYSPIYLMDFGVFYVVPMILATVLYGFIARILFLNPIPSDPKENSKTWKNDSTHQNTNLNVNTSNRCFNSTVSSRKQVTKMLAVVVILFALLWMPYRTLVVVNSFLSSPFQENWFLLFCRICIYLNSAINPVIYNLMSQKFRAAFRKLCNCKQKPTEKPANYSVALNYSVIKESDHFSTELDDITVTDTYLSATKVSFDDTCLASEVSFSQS
row,SMILES,Potency
1,COc1cc(/C=C2\SC(=S)N(NC(=O)c3ccc(O)c(OC)c3)C2=O)ccc1O,"inconclusive [activator, partial curve]"
2,CCN(CC)c1ccc(/C=C2\CCC(/C=N/NC(=O)c3ccc(=O)n(C)c3)=C2N2CCOCC2)cc1,"inconclusive [activator, partial curve]"
3,Cc1ccc2[nH]c(=O)c3cc(C(=O)NCCc4ccc(Cl)cc4)sc3c2c1,inactive
4,CCOC(=O)C1CCCN(c2nc3ccccc3nc2C(C#N)C(=O)OC(C)C)C1 (stereo unspecified),"inconclusive [activator, partial curve, poor fit]"
5,Oc1c(/C=N/c2ccccn2)sc2ccccc12,"inconclusive [activator, partial curve, poor fit]"
6,O=[N+]([O-])c1ccc(N2N=C(c3ccco3)CC2c2ccccc2)cc1 (stereo unspecified),"inconclusive [activator, partial curve]"
7,CC(=Nc1cccc(O)c1)c1sc2ccccc2c1O,"inconclusive [activator, partial curve]"
8,COc1cc(/C=C(\C#N)c2[nH]nc(N)c2C#N)cc(OC)c1O,"inconclusive [activator, partial curve]"
9,CS(=O)(=O)Nc1ccc(C(=O)Nc2ccc3c(c2)OCO3)cc1,inactive
10,CCOC(=O)C1=C(CNCCc2ccc(Cl)cc2)NC(=O)NC1c1ccc2c(c1)OCO2 (stereo unspecified),"inconclusive [activator, partial curve, poor fit]"
11,CC(=O)Nc1sc(/C(C#N)=C/c2ccc(Cl)c(Cl)c2)nc1-c1ccc(C)cc1,active: 7.31 µM
12,COC(=O)c1cccc(NC(=O)CN2CCc3ccccc3C2)c1,inactive
13,COc1cc(OC)c(OC)cc1/C=C1\Oc2cc(OS(C)(=O)=O)ccc2C1=O,"inconclusive [activator, partial curve]"
14,Cc1ccccc1NS(=O)(=O)c1ccc2c3c(cccc13)C(=O)N2C,inactive
15,O=C(C1=C(O)C(=O)N(c2nccs2)C1c1ccccc1)c1cc2ccccc2o1 (stereo unspecified),active: 4.61 µM
16,COc1cccc(C2c3[nH]c4ccccc4c3CCN2Cc2cnn(C)c2)c1 (stereo unspecified),"inconclusive [activator, partial curve, poor fit]"

row,SMILES,Potency
1,CCNc1nc(NCC)n2c(SCC(=O)Nc3ccc(C)c(C)c3)nnc2n1,inactive
2,O=C1/C(=C\c2ccc(O)cc2)SC(=S)N1c1cccnc1,"inconclusive [activator, full curve, poor fit]"
3,Cn1c(-c2ccc3ccccc3n2)nc2cnccc21,inactive
4,C/C(=N/Nc1ccc([N+](=O)[O-])cc1)c1c[nH]c2ccccc12,"inconclusive [activator, partial curve]"
5,NCCSc1c(-c2ccc(F)cc2)[nH]c2ccccc12,"inconclusive [activator, partial curve, poor fit]"
6,CCC(C)NCC(O)(c1ccc(Cl)cc1)c1ccc(Cl)cc1 (stereo unspecified),"inconclusive [activator, partial curve, poor fit]"
7,COc1ccc2c(C#N)c3ccccn3c2c1,"inconclusive [activator, partial curve]"
8,N#CC1=C(N)Oc2cc(O)c(Cl)cc2C1c1cccnc1 (stereo unspecified),"inconclusive [activator, partial curve, poor fit]"
9,CN(C)/C=C/c1onc(-c2c(Cl)cccc2Cl)c1C#N,"inconclusive [activator, partial curve, poor fit]"
10,Cc1c2ccccc2nc2c(F)c(NCCO)c(F)c(F)c12,active: 16.4 µM
11,Cc1ccc2[nH]c(CCN(C)C)c(CC#N)c2c1,"inconclusive [activator, partial curve, poor fit]"
12,CCCCCn1nc(-c2ccccc2)c2nc3ccccc3nc21,active: 16.4 µM
13,O=C(Nc1ccc(Cl)cc1Cl)c1ccc2c(=O)n3c(nc2c1)CCC3,"inconclusive [activator, full curve]"
14,Cc1oc(-c2ccccc2)nc1C(=O)OCC(=O)NC(=O)NCC(C)C,inactive
15,C/C=C/c1ccc(OCCCCNCc2ccco2)c(OC)c1,"inconclusive [activator, partial curve, poor fit]"

# From PubChem BioAssay AID493078 (National Center for Advancing Translational Sciences (NCATS), 2011)
